Measurements from PubChem BioAssay AID588855 (National Center for Advancing Translational Sciences (NCATS), 2011).
The whole screen tested about 410,000 compounds, of which about 5,000 (1.2%) were called active. Inconclusive results, whose numbers are uncertain, are shown with a selection of clear calls. The call rests on the fitted dose curve; in most records, active means well fitted inhibition curve with a large enough effect; inconclusive means small, poorly fitted or top-dose-only effect; inactive means no such curve, though single readings can be large or run the other way. Potencies beside an inconclusive call are fits to weak or partial responses and may not hold up.

test: qHTS for Inhibitors of TGF-b; details: HepG2 CAGA-GFP TGF-b/SMAD3 reporter, GFP fluorescence, 18 h, TGF-beta stimulated, 500 pg/mL final; series mostly up to 46.1 µM; activity, negative = inhibition: at the top concentration; further: nearly all actives have a fitted effect of over 65% in size
Outline: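 TGF-beta reporter screen: HEPG2 CAGA-GFP, 1% FBS, 500 pg/mL TGF-beta final, 18 h; per-cell GFP summed per well; curves fitted and categorized by class.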
On the % scale 0 is the no-effect control and ±100 the full control effect; potency means the concentration at half of the fitted maximal effect; tags describe the fitted curve by direction and shape.

Q: Which Potency does the source give for `Cc1ccc(C)c(C(C)NC(=S)NC2CCCCC2)c1` (stereo not given) here?
A: The Potency was inconclusive: 35.5 µM [inhibitor, single point].

Q: Which Potency does the source give for `O=C(CCCOc1ccccc1)Nc1cccc([N+](=O)[O-])c1` here?
A: Its Potency is inconclusive: 4.47 µM [inhibitor, single point].

Q: Which Potency does the source give for `O=C1/C(=C/c2cccs2)CCC/C1=C\c1cccs1` here?
A: The Potency was inconclusive: 15.8 µM [inhibitor, single point].

Q: For `O=C(NCc1cccs1)c1cc2c(s1)-c1ccccc1OC2`, which Potency is on record?
A: The Potency was inconclusive: 35.5 µM [inhibitor, single point].

Q: Which “activity, negative = inhibition” value does the source give for `C=CCN1C(=O)C(Cc2ccc(SC(F)F)cc2)SC1=Nc1ccc(C(=O)O)cc1` (stereo not given) here?
A: The value was inactive: -1.06%.

Q: For `C=CCC1(CC=C)CCCN1C(=O)c1cc(COc2ccc(-n3cncn3)cc2)on1`, which Potency is on record?
A: The Potency was inconclusive: 3.55 µM [inhibitor, partial curve].

Q: Which “activity, negative = inhibition” value does the source give for `COc1cccc(C2=NN(C(=O)C3CC3)C(O)(C(F)(F)F)C2)c1` (stereo not given) here?
A: Its value is inactive: -4.88%.

Q: With `O=c1[nH]c2ccc(Cl)cc2c(=O)n1Cc1ccco1` as the compound, how does the “activity, negative = inhibition” value read?
A: Its value is inactive: 11.3%.

Q: For `Cc1c[n+]([O-])cc(C)c1Oc1ccccc1`, which “activity, negative = inhibition” value is on record?
A: The value was inactive: 7.82%.

Q: With `NS(=O)(=O)c1cccc(NC(=O)COC(=O)c2cc(-c3ccc(Cl)cc3)nc3ccccc23)c1` as the compound, how does the Potency read?
A: Its Potency is inconclusive: 15.8 µM [inhibitor, single point].

Q: With `CCOC(=O)c1cc(S(=O)(=O)N2CCN(c3cc(Cl)ccc3C)CC2)[nH]n1` as the compound, how does the Potency read?
A: Its Potency is inconclusive: 17.8 µM [inhibitor, single point].

Q: With `Brc1ccc(CSc2nnc3ccccn23)cc1` as the compound, how does the “activity, negative = inhibition” value read?
A: The value was inactive: -0.0582%.

Q: Which “activity, negative = inhibition” value does the source give for `Cc1ccc(C)c(NC(=O)CSc2nc(N)c(NC(=O)c3cccs3)c(=O)[nH]2)c1` here?
A: Its value is inactive: -0.733%.

Q: With `O=C(NCc1n[nH]c(=S)n1-c1ccc(F)cc1)c1ccc(S(=O)(=O)N2CCOCC2)cc1` as the compound, how does the Potency read?
A: Its Potency is inconclusive: 6.31 µM [inhibitor, single point].

Q: Which “activity, negative = inhibition” value does the source give for `C/C=C(\C)CN1CCN(c2ccccc2)CC1` here?
A: Its value is inactive: 7.79%.

Q: Which Potency does the source give for `O=C(c1ccc(Cl)cc1)N1CCC(O)(CSc2ccc(Cl)cc2Cl)CC1` here?
A: Its Potency is inconclusive: 35.5 µM [inhibitor, single point].

Q: With `CC(=O)C1=C(O)C(=O)N(C)C1c1ccccc1[N+](=O)[O-]` (stereo not given) as the compound, how does the “activity, negative = inhibition” value read?
A: Its value is inactive: -12.8%.

Q: Which “activity, negative = inhibition” value does the source give for `COc1ccc(CN2CN=C(Nc3nc4ccccc4s3)NC2)cc1` here?
A: Its value is inactive: -1.72%.

Q: Which “activity, negative = inhibition” value does the source give for `COc1cc(C)c2ccccc2n1` here?
A: Its value is inactive: -2.63%.

Q: With `Cc1oc(-c2ccccc2Cl)nc1CS(=O)(=O)CC(=O)NC(C)CCc1ccccc1` (stereo not given) as the compound, how does the Potency read?
A: Its Potency is active: 10 µM.

Q: With `CCc1cc2cc(C(=O)N3CCN(c4ccccc4)CC3)sc2s1` as the compound, how does the “activity, negative = inhibition” value read?
A: Its value is inactive: 9.98%.

Q: With `O=C(N/N=C/c1cccc(Oc2ccccc2)c1)c1cccc(Br)c1` as the compound, how does the Potency read?
A: The Potency was inconclusive: 31.6 µM [inhibitor, single point].

Q: Which “activity, negative = inhibition” value does the source give for `COc1ccc(OC)c(/C=C/C(=O)Oc2ccc(C(C)=O)cc2)c1` here?
A: The value was inactive: -15.9%.

Q: Which Potency does the source give for `CC(C)NC(=S)N/N=C/c1cc(Br)ccc1O` here?
A: The Potency was inconclusive: 31.6 µM [inhibitor, single point].

Q: For `COc1ccc(CC(N)c2csc(NC(=O)Nc3ccccc3Cc3ccccc3)n2)cc1` (stereo not given), which Potency is on record?
A: Its Potency is inconclusive: 35.5 µM [inhibitor, single point].

Q: Which “activity, negative = inhibition” value does the source give for `O=C(CSc1nnnn1-c1ccc2c(c1)OCO2)NCc1ccccc1` here?
A: Its value is inactive: 20.3%.

Q: For `O=C(CSCc1ccccc1)N1CCN(c2cccc(C(F)(F)F)c2)CC1`, which Potency is on record?
A: Its Potency is inconclusive: 10 µM [inhibitor, partial curve, poor fit].

Q: With `CCCCc1ccc(NC(=O)CSc2nc(=O)n(CCN3CCOCC3)c3c2CCC3)cc1` as the compound, how does the “activity, negative = inhibition” value read?
A: The value was inactive: 0%.

Q: With `Cc1ccc(NC(=O)Cn2ncc3c4ccccc4n(Cc4ccccc4)c3c2=O)cc1Cl` as the compound, how does the “activity, negative = inhibition” value read?
A: Its value is inactive: 10.2%.

Q: Which Potency does the source give for `Cc1ccc(C)c2sc(N3CCN(C(=O)c4ccco4)CC3)nc12` here?
A: Its Potency is active: 10 µM.

Q: With `N#CCCNc1c(Cl)cc(Cl)cc1C(=O)O` as the compound, how does the Potency read?
A: Its Potency is inconclusive: 6.31 µM [inhibitor, single point].

Q: For `CC[C@H](C)[C@H](NC(=O)OCc1ccccc1)C(=O)OCC(=O)N1CCN(c2ccc(OC)cc2)CC1`, which Potency is on record?
A: Its Potency is inconclusive: 14.1 µM [inhibitor, single point].

Q: For `Cc1ccc(C)c(N2CCN(C(=O)c3csc4ccccc34)CC2)c1`, which Potency is on record?
A: Its Potency is inconclusive: 35.5 µM [inhibitor, single point].

Q: With `COc1ccccc1-c1cc(C(F)(F)F)nc(S(=O)(=O)CCCC(=O)NC(C)C)n1` as the compound, how does the Potency read?
A: The Potency was inconclusive: 3.16 µM [inhibitor, partial curve, poor fit].

Q: For `CN1CCCN(C(=O)CNC(=O)c2ccccc2F)CC1`, which Potency is on record?
A: Its Potency is inconclusive: 14.1 µM [inhibitor, single point].

Q: Which Potency does the source give for `Clc1ccc2nccnc2c1` here?
A: The Potency was inconclusive: 15.8 µM [inhibitor, partial curve, poor fit].

Q: With `Cc1ccccc1NC(=O)Nc1nnc([C@@H]2C[C@H](O)[C@@H](CO)O2)s1` as the compound, how does the “activity, negative = inhibition” value read?
A: Its value is inactive: -10.6%.

Q: With `O=C(NN1C(=O)NC2(CCCCC2)C1=O)c1ccc(-c2ccc(Cl)cc2)o1` as the compound, how does the Potency read?
A: Its Potency is inconclusive: 35.5 µM [inhibitor, single point].

Q: Which Potency does the source give for `CCOc1ccc(/C=N/Nc2nc(C)cs2)c(O)c1` here?
A: The Potency was inconclusive: 3.16 µM [inhibitor, full curve].

Q: For `CCc1nc2c(OCc3ccc(F)c(F)c3)cccn2c1N(C)C(=O)C1CC1`, which Potency is on record?
A: The Potency was inconclusive: 35.5 µM [inhibitor, single point].

Q: For `Cc1cc(N=Cc2c(O)n(-c3ccc4c(c3)OCO4)c(=O)c3ccccc23)ccn1`, which Potency is on record?
A: Its Potency is inconclusive: 17.8 µM [inhibitor, single point].

Q: For `CCOc1cc(CNC2CCCC2)ccc1OCc1ccccc1Cl`, which Potency is on record?
A: Its Potency is inconclusive: 35.5 µM [inhibitor, single point].

Q: With `Nc1c(Cl)cc(C2=NCCn3c2c2ccc([N+](=O)[O-])cc2[n+]3[O-])cc1Cl` as the compound, how does the Potency read?
A: Its Potency is active: 11.2 µM.

Q: Which Potency does the source give for `COC(C/C=C/C(=O)COCc1ccccc1)OC` here?
A: Its Potency is inconclusive: 35.5 µM [inhibitor, single point].

Q: For `COc1ccccc1NS(=O)(=O)c1cc(NC(=O)c2ccc(NC(C)=O)cc2)ccc1N1CCOCC1`, which Potency is on record?
A: Its Potency is inconclusive: 7.08 µM [inhibitor, full curve].

Q: With `CCc1nc(SCc2cc(=O)c3cc(F)ccc3[nH]2)n[nH]1` as the compound, how does the “activity, negative = inhibition” value read?
A: The value was inactive: 1.21%.

Q: With `CC1=C(C(=O)N(C(C)C)C(C)C)CC(CC(=O)NC(c2ccccc2)c2ccccc2)C(=O)N1Cc1ccc(C(C)(C)C)cc1` (stereo not given) as the compound, how does the Potency read?
A: Its Potency is active: 17.8 µM.

Q: For `CC(C)=CCC/C(C)=C/Cc1c(O)ccc(C(=O)/C=C/c2ccc(O)cc2)c1O`, which Potency is on record?
A: Its Potency is inconclusive: 31.6 µM [inhibitor, single point].

Q: With `CSc1nnc(NC(=O)c2nc(S(=O)(=O)Cc3ccc(C)cc3)ncc2Cl)s1` as the compound, how does the Potency read?
A: Its Potency is inconclusive: 35.5 µM [inhibitor, single point].

Q: Which “activity, negative = inhibition” value does the source give for `O=C(NCc1cccnc1)c1ccc(COc2ccc(Cl)cc2Cl)o1` here?
A: Its value is inactive: -0.859%.

Q: With `O=C(Cc1ccccc1)NCCS(=O)(=O)N1CCN(c2ccccc2)CC1` as the compound, how does the Potency read?
A: The Potency was inconclusive: 3.98 µM [inhibitor, single point].

Q: With `O=C(Nc1ccccc1)c1nc[nH]c1C(=O)NCCN(CCNC(=O)c1[nH]cnc1C(=O)Nc1ccccc1)CCNC(=O)c1[nH]cnc1C(=O)Nc1ccccc1` as the compound, how does the Potency read?
A: Its Potency is active: 20 µM.

Q: Which Potency does the source give for `Cc1ccc(NS(=O)(=O)c2cc(NC(=O)C(C)Oc3ccccc3)ccc2C)c(C)c1` (stereo not given) here?
A: Its Potency is inconclusive: 22.4 µM [inhibitor, single point].

Q: For `Clc1ccc(C[n+]2cc(-c3ccccc3)n3c2CCC3)cc1Cl`, which “activity, negative = inhibition” value is on record?
A: Its value is inactive: -10.9%.

Q: With `CCN(CC)S(=O)(=O)c1ccc(NC(=O)[C@H](CCSC)N2Cc3ccccc3C2=O)cc1` as the compound, how does the Potency read?
A: The Potency was inconclusive: 12.6 µM [inhibitor, single point].

Q: With `CCN1CCN(C(c2cccnc2)c2cc(Cl)c3cccnc3c2O)CC1` (stereo not given) as the compound, how does the Potency read?
A: Its Potency is inconclusive: 11.2 µM [inhibitor, partial curve, poor fit].

Q: For `Cc1cccc(CNc2ncnc3ccc(-c4ccoc4)cc23)c1`, which Potency is on record?
A: The Potency was inconclusive: 8.91 µM [inhibitor, single point].

Q: With `COc1ccccc1OCC(=O)NCCS(=O)(=O)N1CCN(c2ccccc2)CC1` as the compound, how does the Potency read?
A: The Potency was inconclusive: 35.5 µM [inhibitor, single point].

Q: With `NC(=NCCc1c[nH]c2ccccc12)NC(=O)c1ccc(F)cc1` as the compound, how does the Potency read?
A: Its Potency is inconclusive: 3.98 µM [inhibitor, partial curve, poor fit].

Q: Which “activity, negative = inhibition” value does the source give for `Cc1ccc2c(c1)cc(C(=O)NCc1ccc(F)cc1)n2C` here?
A: The value was inactive: 23.5%.

Q: Which Potency does the source give for `Cc1ccc(S(=O)(=O)Nc2cccc(C(=O)NCc3ccccn3)c2)cc1F` here?
A: The Potency was inconclusive: 0.794 µM [inhibitor, full curve, poor fit].

Q: For `COc1cc2c(cc1OC)C(c1ccc(F)cc1)N(c1ccccc1)C(=O)C2` (stereo not given), which “activity, negative = inhibition” value is on record?
A: The value was inactive: 10.4%.

Q: Which Potency does the source give for `Cc1nnc(N2CCC(C(=O)NCc3ccc(F)cc3)CC2)c2nn(-c3ccc(Cl)cc3)c(C)c12` here?
A: The Potency was inconclusive: 11.2 µM [inhibitor, partial curve, poor fit].

Q: Which Potency does the source give for `CC(=O)C[C@H]1c2ccccc2S(=O)(=O)N1C1CCCC1` here?
A: Its Potency is inconclusive: 3.16 µM [inhibitor, partial curve, poor fit].

Q: For `Cn1c(SCc2cccc3ccccc23)nnc1-c1ccco1`, which “activity, negative = inhibition” value is on record?
A: Its value is inactive: -9.94%.

Q: With `Cc1ccccc1NC(=O)c1c(C)oc2ccc(O)c(CN3CCCC(C)C3)c12` (stereo not given) as the compound, how does the Potency read?
A: The Potency was inconclusive: 12.6 µM [inhibitor, single point].

Q: For `C[C@]12C(=O)N(c3ccc(F)cc3)C(=O)N1[C@H]1c3ccccc3OC[C@@H]1[C@H]2c1ccccc1`, which Potency is on record?
A: Its Potency is inconclusive: 1.12 µM [inhibitor, full curve, poor fit].

Q: With `NC(=S)NN=C1CCC(C2CCCCC2)CC1` (stereo not given) as the compound, how does the Potency read?
A: The Potency was inconclusive: 35.5 µM [inhibitor, single point].

Q: With `Cc1ccc(NC(=S)N(Cc2cccs2)Cc2cc3cc(C)ccc3[nH]c2=O)cc1` as the compound, how does the Potency read?
A: The Potency was inconclusive: 15.8 µM [inhibitor, single point].

Q: For `CCOc1ccc(NC(=O)CN2C(=O)NC(C)(c3ccc(OC(F)F)cc3)C2=O)cc1` (stereo not given), which “activity, negative = inhibition” value is on record?
A: Its value is inactive: -1.45%.
